This is an account of results in ChEMBL document CHEMBL4888484, “Replenishing the malaria drug discovery pipeline: Screening and hit evaluation of the MMV Hit Generation Library 1 (HGL1) against asexual blood stage Plasmodium falciparum ,using a nano luciferase reporter read-out” (2022).

Structures are written as SMILES. The whole screen tested about 150,000 compounds, of which about 540 (0.36%) showed an effect of 50% or more. This is one part of the list.

For the experiment, the system named is Plasmodium falciparum. In words: Primary screen in NF54 nanoGlo assay, in single point, at 2uM, 72h; a lower Z score goes with more inhibition. The experiment is classed as functional, Erythrocyte. The following applies: timepoint 72 hour.
For orientation: % Inhibition means the relative decrease from the control value, in per cent. Turning to `CC(C)c1nc(C2CCN(C(=O)[C@@H](O)Cc3c(F)cccc3Cl)CC2)no1`, the “% Inhibition” value is reported as -11% and the Z score worked out at 2.01.
As to `Cc1cc(NC(=O)[C@H]2CC(=O)N(c3cccc(C(=O)Nc4ccccc4)c3)C2)ccc1F`, the “% Inhibition” value is -11% and the Z score came to 1.11.
The corresponding values for `Cc1c(C2CC2)n[nH]c1NC(=O)Cc1coc(-c2ccc(F)cc2)n1` are -6% and 1.13.
In the same order, the values of `CC1(C)C[C@@H]1C(=O)NC12CC1COC2(C)C` (stereo partly drawn) are -4% and 0.39.
In the same order, the values of `COc1cccc(CN2CCC[C@@]3(CCOC3)C2)c1OCCn1ccnc1` are -7% and 1.07.
Consider `CC(C)(C)C(=O)N1CCC(O)(CS(=O)(=O)Cc2ccccc2)CC1`, for which the “% Inhibition” value turned out to be 34% and the Z score is recorded as -4.34.
In the same order, the values of `c1ncc(CCNc2ccc3nnnn3n2)[nH]1` are -4% and 0.59.
The corresponding values for `CC(C)c1noc([C@@H]2CCCN2C(=O)NC2CCCC2)n1` are -12% and 1.33.
In the same order, the values of `COc1cccc(C(=O)N(Cc2ccco2)Cc2c(-c3ccccc3)nn(C)c2Oc2ccccc2F)c1` are -13% and 1.67.
`C[C@@]1(C(=O)Nc2cccc(NC(N)=O)c2)CCCN1C(=O)c1ccccc1`: the “% Inhibition” value is listed as -11% and the Z score is 1.92.
The corresponding values for `COc1cccc2sc(N(C)CC(=O)NCCc3ccc(S(N)(=O)=O)cc3)nc12` are -9% and 1.62.
In the same order, the values of `CNC(=O)[C@@H]1CN(Cc2nccc(N)n2)CCO1` are -1% and 0.17.
As for `COCCN(C(=O)c1cc(-c2ccc(OC)cc2)n[nH]1)C1CCN(C)CC1`, the “% Inhibition” value was -4% and the Z score stood at 0.79.
The corresponding values for `CN1O[C@@H](CC(=O)NCc2ccc3c(c2)OCO3)N(c2ccc(Cl)cc2)C1=O` are -1% and 0.15.
The corresponding values for `C[C@H](NC(=O)c1snc(O)c1Cl)c1ccc(Oc2ccccc2)cc1` are -11% and 1.9.
The corresponding values for `C[C@H]1C(=O)N(C)S(=O)(=O)N1CCOc1c(Cl)cccc1Cl` are 0% and -0.04.
Turning to `Cc1[nH]c2ccc(OCc3nc(C(C)(C)C)no3)cc2c1C`, the “% Inhibition” value is -14% and the Z score turned out to be 1.93.
Take `COc1ccc(NC(=O)C2CCN(C(=O)CNC(=O)Nc3c(Br)cc(C(C)C)cc3Br)CC2)cc1`: the “% Inhibition” value came out at 5% and the Z score is given as -0.79.
Take `O=C(N1CC2CCCC21)C1(C(F)(F)F)CCCC1` (stereo not drawn): the “% Inhibition” value is -3% and the Z score was 0.43.
As for `CC1(c2noc(-c3ccccc3)n2)CCN(C(=O)CCS(=O)(=O)c2ccc3c(c2)CCC(=O)N3)CC1`, the “% Inhibition” value is -17% and the Z score came to 2.22.
Take `Cc1cnn(C2CN(Cc3nc(C4CC4)no3)C2)c1`: the “% Inhibition” value is recorded as -10% and the Z score turned out to be 1.04.
Regarding `CC(C)C(=O)N1CCC[C@H](Nc2ncnc3[nH]cnc23)C1`, the “% Inhibition” value is on record as -3% and the Z score is 0.36.
On to `N#Cc1cnc(N[C@H]2COC[C@@H]2O)c(Cl)c1`, for which the “% Inhibition” value is -15% and the Z score is listed as 1.86.
The corresponding values for `Cc1ncoc1C(=O)N1CCC2(CC1)C[C@@H](N(C(=O)NC(C)C)C1CC1)CCO2` are 6% and -0.92.
The corresponding values for `CCCN1CCC[C@H](CNc2ncc(CC)cn2)C1` are -12% and 2.24.
In the same order, the values of `O=C(NCc1csc(N2CCOCC2)n1)c1ccc2c(c1)OCO2` are -8% and 1.03.
Take `CC1(NC(=O)CC2(CS(C)(=O)=O)CC2)CCCCCC1`: the “% Inhibition” value is -17% and the Z score is reported as 1.71.
In the same order, the values of `COCCN1CC(=O)N[C@H]2CN(C(=O)c3ccc4c(c3)OCCO4)C[C@@H]2OCc2cccc(c2)Oc2cc(ccc2OC)CCC1=O` are 3% and -0.33.
The corresponding values for `CCOC(=O)N1CCC(NC(=O)c2ccc(-c3cc[nH]n3)cc2)CC1` are -7% and 0.7.
The corresponding values for `COC1(CNCc2cnn3ccccc23)CCOCC1` are -6% and 1.14.
With `O=C(Nc1ccc(Cl)c(Cl)c1)C1=NCCCN1`, the “% Inhibition” value is 3% and the Z score is listed as -0.43.
As for `OC(CN[C@H]1C[C@H](N2CCOCC2)C12CCC2)c1ccccc1F` (stereo partly drawn), the “% Inhibition” value was -18% and the Z score was 2.4.
Consider `CC(C)CC(=O)N1CCOC2CCCCC21` (stereo not drawn), for which the “% Inhibition” value is reported as -3% and the Z score is 0.38.
`Cc1ccc(-c2nocc2CCC(=O)NCC2CCCCC2)cc1`: the “% Inhibition” value stood at 1% and the Z score was -0.21.
On to `CC[C@@H](CO)NCc1ccc(OC(F)F)c(F)c1`, for which the “% Inhibition” value is listed as -7% and the Z score is given as 1.23.
For the molecule `CC1C(C)S(=O)(=O)CCN1CC(=O)N(C(C)C)C(C)C` (stereo not drawn), the “% Inhibition” value is on record as -6% and the Z score is reported as 0.99.
In the same order, the values of `Cc1c(NC(C)C(C)C)cccc1C(=O)NC1CCC(=O)N(C)C1` (stereo not drawn) are -2% and 0.45.
The corresponding values for `COc1cc(Cl)ccc1C(=O)N1CC2(CN(C)C(=O)O2)C1` are 1% and -0.15.
The corresponding values for `O=C(Cn1cc(Br)c(=O)[nH]c1=O)N1CCN(c2ncccn2)CC1` are -6% and 0.89.
Consider `CS(=O)(=O)N1CCN(Cn2nnc3ccccc3c2=O)CC1`, for which the “% Inhibition” value was found to be 9% and the Z score was -0.96.
The corresponding values for `c1ccc(-c2nc(C[n+]3ccc4c(c3)CCCC4)cs2)cc1` are 63% and -6.15.
For the molecule `COCCNC(=O)N1CCN(c2ncccc2-c2nnc(C(C)C)o2)CC1`, the “% Inhibition” value is -13% and the Z score turned out to be 1.21.
Regarding `CC1(C)[C@H](CS(=O)(=O)N2CC(CO)C2)C1(F)F`, the “% Inhibition” value is 2% and the Z score is listed as -0.32.
The corresponding values for `COc1ccc(NC(=O)Cc2nc(C)c(C(=O)NCc3ccccc3)s2)cc1` are -15% and 2.06.
On to `c1cn2c(CN3CCC(OC4CCCCC4)CC3)cnc2cn1`, for which the “% Inhibition” value is given as -5% and the Z score was determined as 0.67.
The corresponding values for `COc1ccc2c(c1)c(CN1CC[C@H](CO)[C@H](N(C)C)C1)cn2C` are -2% and 0.41.
In the same order, the values of `CC(C)NC(=O)Nc1ccc2c(c1)N(C)S(=O)(=O)N2C` are -4% and 0.51.
Turning to `CN(Cc1ccccc1)C(=O)c1nc2ccccc2s1`, the “% Inhibition” value was -10% and the Z score is given as 1.35.
Regarding `CCNC(=O)N[C@H]1[C@H](O)[C@H](O)C[C@@H]1c1ccc(C)cc1`, the “% Inhibition” value is -11% and the Z score came out at 1.64.
In the same order, the values of `c1ccc(Cc2nnc([C@H]3CCN(CC4CC4)C3)o2)cc1` are -13% and 2.03.
The corresponding values for `O=C(CCc1ccc(Cl)c(F)c1)N1CC(N2CCc3ccccc3C2)C1` are -9% and 1.44.
The corresponding values for `Cc1oc(-c2ccccc2Cl)nc1CN(C)Cc1cnn(C)c1C` are 5% and -0.63.
For `O=C1[C@@H](N2CCC3(C2)OCCO3)CCN1c1ccc(Cl)c(F)c1`, the “% Inhibition” value is recorded as -24% and the Z score came out at 2.43.
For the molecule `CCc1cc(C(=O)N2CCN(CC)CC2)c2c(C)nn(-c3ccc(OC)cc3)c2n1`, the “% Inhibition” value is reported as -3% and the Z score was 0.4.
In the same order, the values of `COc1csc(C(=O)N(C)[C@H]2CCN(CC(F)(F)F)C2=O)c1` are -3% and 0.49.
Consider `CCS(=O)(=O)N1CCN(c2nc(CN3CCN(Cc4ccccc4)CC3)cc(=O)[nH]2)CC1`, for which the “% Inhibition” value is listed as -4% and the Z score worked out at 0.54.
In the same order, the values of `O=C(Nc1ccccc1)N1CCC[C@@H]1Cc1noc(-c2ccccc2)n1` are -12% and 1.78.
As for `CCc1onc(C)c1[C@@H]1CCCN1Cc1ccc(C)cc1C`, the “% Inhibition” value is -10% and the Z score came out at 1.34.
The corresponding values for `Cc1ccnc(NC(=O)c2occc2Br)n1` are 29% and -3.26.
The corresponding values for `COc1ccc(-c2noc(-c3ccc(N(C)C[C@H]4CCCN4C)nc3)n2)cc1` are 2% and -0.3.
The corresponding values for `COCCn1c(C)cnc1C[C@H]1CCCN(C(=O)COc2ccccc2)C1` are 2% and -0.3.
Take `COc1ccc(N)cc1OCC(F)F`: the “% Inhibition” value turned out to be 27% and the Z score is -3.03.
Regarding `O=C(c1ccncc1Br)N1CCC[C@H]1CO`, the “% Inhibition” value was -16% and the Z score was 2.15.
In the same order, the values of `Cn1c(CO)nnc1[C@H]1C[C@H](NS(=O)(=O)c2ccc3c(c2)OCCO3)C1` are -12% and 2.27.
In the case of `O=C1c2ccc(-c3nc4ccccc4o3)cc2C(=O)N1C1CCCCC1`, the “% Inhibition” value was -8% and the Z score amounted to 1.12.
Turning to `C[C@H](NC(=O)NC1CCc2c(nnn2C)C1)c1nccs1` (stereo partly drawn), the “% Inhibition” value is -1% and the Z score is recorded as 0.19.
With `Cn1c(Nn2cnnc2)nc2ccccc21`, the “% Inhibition” value is listed as -7% and the Z score is given as 1.06.
In the same order, the values of `CC(NC(=O)c1ccc2c(c1)C(=O)N(CC1CCCO1)C2=O)c1ccccc1` (stereo not drawn) are -1% and 0.12.
The corresponding values for `CCC1=C(c2ccc(C)cc2)S(=O)(=O)N=C1N1CCC(C(=O)Nc2ccccc2F)CC1` are -12% and 1.28.
The corresponding values for `C[C@@H]1CN(CCN(C)C(=O)Nc2nc(C3CC3)cs2)C[C@H](C)O1` are 34% and -0.98.
For the molecule `Cc1n[nH]c(C)c1S(=O)(=O)Nc1ccc2nc(N3CCCC3)sc2c1`, the “% Inhibition” value was -17% and the Z score is 1.66.
On to `CCc1c[nH]c2ncnc(N3CCN([C@H]4CCS(=O)(=O)C4)CC3)c12`, for which the “% Inhibition” value was found to be 1% and the Z score is listed as -0.22.
In the same order, the values of `Cc1cc(C)n([C@@H](C)c2nc(-c3ccc(F)c(F)c3)nn2CCO)n1` are -1% and 0.11.
The corresponding values for `Clc1cccc(CN2CCOC[C@H](Oc3cccnc3)C2)c1` are -11% and 1.45.
The corresponding values for `Cc1nnsc1C(=O)NCc1cccc(CN2CCC(C)CC2)c1` are 8% and -1.08.
As for `Cc1c(C)n(Cc2ccccc2)c2ncnc(N3CCN(C(=O)CN4CCOCC4)CC3)c12`, the “% Inhibition” value is reported as -22% and the Z score was 2.63.
Consider `COCc1nnc2n1CCN(c1nc(C)c(C#N)cc1Cl)C2`, for which the “% Inhibition” value is given as -9% and the Z score is reported as 1.3.
In the same order, the values of `CCNc1ccnc(N2C[C@H]3CC[C@@H](C2)N(Cc2c(C)noc2C)C3=O)n1` are -7% and 0.68.
In the same order, the values of `Cc1ccc(OCC(=O)N(Cc2cccc(Cl)c2)[C@H]2CCS(=O)(=O)C2)cc1C` are -6% and 0.5.
In the same order, the values of `Cc1ccc(-c2ccno2)cc1S(=O)(=O)NCc1cc2n(n1)CCNC2` are -7% and 0.97.
As for `CC(=O)Nc1nc(CN2CC(N3CCCC3)CC2C(C)C)cs1` (stereo not drawn), the “% Inhibition” value is on record as 14% and the Z score is given as -2.73.
In the same order, the values of `Cc1ccc(S(=O)(=O)N2C[C@@H](C(N)=O)[C@H](C3CCN(C)CC3)C2)cc1Cl` are -14% and 1.93.
The corresponding values for `COC(=O)CNC1CCCCC1CO` (stereo not drawn) are -3% and 0.34.
For `Cc1ccc(-c2nnc(-c3nn(C)c4c3CN(S(=O)(=O)c3cc(F)ccc3F)CC4)o2)cc1`, the “% Inhibition” value is recorded as -25% and the Z score amounted to 2.17.
